# Assay results published in PubChem BioAssay AID1345082 (National Center for Advancing Translational Sciences (NCATS), 2018).
# Screen size: about 94,000 compounds; about 4,000 (4.3%) were called active. Inconclusive means that the source gave no clear call. Such entries were picked first, then a sample of the others. Calls come from the whole dose curve; as a rule, active = well fitted inhibition curve with a large enough effect; inconclusive = small, poorly fitted or top-dose-only effect; inactive = no such curve, though single readings can be large or run the other way. Potencies of inconclusive entries are doubtful fits and often do not repeat.
# Test: Cytotoxic Profiling in NIH 3T3 Cell Line of Diverse Libraries Using Quantitative High-Throughput Screening; note: nearly all actives have a fitted effect of over 55% in size
# Details: NIH 3T3 viability, CellTiter-Glo ATP luminescence, 48-72 h; activity change, negative = cytotoxicity: at 96.7 µM (top of the series) unless noted; series mostly up to 96.7 µM
# How it was run: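 Mouse fibroblast NIH 3T3 cells, 400 per well, received compound via pintool and were incubated for 48 or 72 hr prior to CellTiter-Glo ATP luminescence measurement.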
# % is set by controls: 0 for no effect and ±100 for the full control effect; potency is the fitted concentration of half-maximal effect; tags give direction and shape of the fitted curve.
Compound,"activity change, negative = cytotoxicity",outcome,Potency
CC(C)NC(=O)N1CCCC(c2nn(C)c(=O)n2Cc2ccccc2)C1 (configuration not stated),inactive: -15.4%,–,–
COCCNC(=O)[C@@H]1C[C@H](Oc2cccnc2)CN1S(=O)(=O)c1cccnc1,–,inactive,–
O=C(c1cc2n(n1)CC(c1ccc(Cl)cc1)OC2)N1CCCCC1 (configuration not stated),–,–,active: 39.8 µM
COc1ccccc1-c1ccc(C(=O)N2CCC(NC(=O)c3ccccc3F)CC2)cc1,–,–,"inconclusive: 70.8 µM [inhibitor, single point]"
COCCC1(NC(=O)C2CCOCC2)CCN(C(=O)C2COc3ccccc3O2)CC1 (configuration not stated),inactive: -5.99%,–,–
Cc1oc2c(c1C(=O)N1CCN(c3ccccc3)CC1)CN(Cc1ccccc1)CC2,–,–,"inconclusive: 50.1 µM [inhibitor, partial curve, poor fit]"
Cc1ccc(C)c(NC(=O)CN2C(=O)NC(c3ccccc3Cl)C3=C2COC3=O)c1 (configuration not stated),inactive: -1.58%,–,–
O=C1N(Cc2cccc(F)c2F)CCCC1(O)CNCc1cccc(F)c1 (configuration not stated),–,–,"inconclusive: 79.4 µM [inhibitor, single point]"
CCOC(=O)c1cccc(NC(=O)N2CC[C@@H](CC(=O)N[C@@H](CO)CC(C)C)[C@@H](CC)C2)c1,–,–,"inconclusive: 50.1 µM [inhibitor, partial curve, poor fit]"
O=C(Cc1ccsc1)N1CCN(c2cc(-c3cccs3)[nH]n2)CC1,–,–,"inconclusive: 44.7 µM [inhibitor, partial curve, poor fit]"
Cn1ncc2c(C(=O)NCC(F)F)cc(-c3ccc(C(F)(F)F)cc3)nc21,–,–,"inconclusive: 39.8 µM [inhibitor, partial curve, poor fit]"
CN1c2cc(C(=O)N3CCN(c4ccc(F)cc4)CC3)ccc2C(=O)N2CCCCC21 (configuration not stated),inactive: -6.43%,–,–
CC(=O)N1Cc2ccccc2CC2(CCN(Cc3cccnc3)CC2)C1,inactive: 3.26%,–,–
CC1=C(C(=O)OC(C)C)C(c2ccc(C)cc2C)N2C(CC(=O)N3CCCC3)=CSC2=N1 (configuration not stated),–,–,"inconclusive: 50.1 µM [inhibitor, partial curve, poor fit]"
CCc1c(C)nc(-c2ccc(F)cc2)n(CC(=O)Nc2ccc(OC)c(OC)c2)c1=O,inactive: -2.44%,–,–
COCCn1cnc2ccc(-c3ccc(F)cc3)nc2c1=O,–,–,"inconclusive: 89.1 µM [inhibitor, partial curve]"
CC(=O)c1ccc(NC(=O)Cn2c(N3CCc4ccccc4C3)nc(C)cc2=O)cc1,–,–,active: 28.2 µM
CN(C)c1cc(=O)c2ccnc(N3CCN(c4ccccn4)CC3)c2o1,–,–,"inconclusive: 112 µM [inhibitor, single point]"
COc1cccc(-c2cc(C3CCN(S(=O)(=O)c4ccc(C(C)=O)cc4)CC3)[nH]n2)c1,–,–,"inconclusive: 31.6 µM [inhibitor, partial curve, poor fit]"
Cc1cc2c(Nc3cccnc3)nc(-c3c(C)noc3C)cc2[nH]1,–,–,"inconclusive: 12.6 µM [inhibitor, full curve]"
COCCNC(=O)CC1=C2CCCCC2N(Cc2ccccc2)C1=O (configuration not stated),inactive: -22.8%,–,–

Compound,"activity change, negative = cytotoxicity",outcome,Potency
Cn1nc(C2CCCC2)cc1NC(=O)C(C)(C)C,inactive: -13.4% [at 138 µM],–,–
Cc1ccc(N2C(=S)N[C@H]3[C@@H](O)[C@H](O)C[C@@H](C(=O)NCc4cccs4)[C@H]32)cc1Cl,–,–,"inconclusive: 50.1 µM [inhibitor, partial curve, poor fit]"
CC(C)(C)CNC1(Cc2cc(-c3cccc(O)c3)on2)COC1,–,–,"inconclusive: 79.4 µM [inhibitor, partial curve, poor fit]"
CCCc1ccc2oc(C(=O)N(C)CCC3CCCCO3)c(C)c2c1 (configuration not stated),–,–,"inconclusive: 35.5 µM [inhibitor, full curve]"
COc1cccc(-c2n[nH]c3c2CC(=O)N(CC2CCOCC2)C3)c1,–,–,"inconclusive: 89.1 µM [inhibitor, partial curve, poor fit]"
CCc1nn(-c2ccc(OC)cc2)c(Oc2cccc(F)c2)c1CCC(=O)N(CC)CC,–,–,"inconclusive: 50.1 µM [inhibitor, partial curve, poor fit]"
CC1=C[C@@H](CNC(=O)CC2(CC(=O)O)CCCC2)[C@H](C(C)C)C[C@H]1Cc1nc2ccc(F)cc2[nH]1,inactive: -16.8%,–,–
Cc1cccc(-c2cccc(CN3CCC(NC(=O)Cc4ccccn4)CC3)c2)c1,–,–,active: 44.7 µM
O=C(NC1CCCCC1)c1ccc2nc(-c3ccccn3)oc2c1,–,–,"inconclusive: 79.4 µM [inhibitor, partial curve, poor fit]"
O=C(CC1CCCC1)N1C[C@@H](CO)[C@@H]2Oc3ccc(Cl)cc3[C@@H]21,–,–,"inconclusive: 50.1 µM [inhibitor, partial curve, poor fit]"
Cc1nc(CN2C[C@H](C(=O)NCCOc3ccccc3)C[C@@H]2c2ccc(F)cc2)cs1,–,–,active: 56.2 µM
CC(=O)Nc1ccc(NC(=O)c2cc3sc(C)c(CN4CCCCC4)c3[nH]2)cc1,–,–,"inconclusive: 50.1 µM [inhibitor, partial curve, poor fit]"
COc1ccc(Cl)cc1CN(C)C(=O)c1ccc(C2CCCNC2)cc1 (configuration not stated),–,–,"inconclusive: 50.1 µM [inhibitor, partial curve, poor fit]"
Fc1ccc2nc([C@H]3CCN(Cc4ccccc4F)C3)[nH]c2c1,–,–,active: 79.4 µM
O=C(c1ccc(C(F)(F)F)cc1)N1CCN2C(=O)N(C3CCCCC3)C[C@H]2C1,–,–,"inconclusive: 89.1 µM [inhibitor, partial curve, poor fit]"
Cc1ccsc1C(=O)N1CCC2(CC1)N=C(c1cccc(Br)c1)NO2,–,–,"inconclusive: 44.7 µM [inhibitor, partial curve, poor fit]"
Cc1cccc(-c2cccc(CN3CCC(NC(=O)c4ccccn4)CC3)c2)c1,–,–,"inconclusive: 44.7 µM [inhibitor, partial curve, poor fit]"
COc1ccccc1CNC(=O)c1ccc2c(c1)N(C)C1CCCCN1C2=O (configuration not stated),–,–,"inconclusive: 22.4 µM [inhibitor, partial curve, poor fit]"
CNC(=O)c1cc(C2CC2)nc2c1c(C1CCN(C(=O)c3ccc(C(F)(F)F)cc3)CC1)nn2C,–,–,"inconclusive: 44.7 µM [inhibitor, partial curve, poor fit]"
COc1cccc(-c2cc(CNC(=O)C3COc4c(cccc4OC)C3)no2)c1 (configuration not stated),–,–,"inconclusive: 50.1 µM [inhibitor, partial curve, poor fit]"
CN(C)C(=O)N1CCC(C(=O)N2CCCC2c2nc3ccncc3[nH]2)CC1 (configuration not stated),inactive: -5.96%,–,–

Compound,"activity change, negative = cytotoxicity",outcome,Potency
C=CCOC(=O)Nc1nc2c(s1)C[C@@H]1[C@](C)(CO)[C@H](O)CC[C@@]1(C)[C@@H]2CC(=O)N(CC)CC,inactive: -24.1%,–,–
COc1ccc(-c2cc(C[C@@H]3CC[C@H](O)[C@@H](CNC(=O)c4ccc5c(c4)OCO5)O3)no2)cc1,–,–,"inconclusive: 89.1 µM [inhibitor, partial curve, poor fit]"
O=C1NCCCCCCN(C(=O)c2ccco2)[C@H]2C[C@H](C(=O)N3CCc4ccccc4C3)C[C@@H]12,inactive: -1.94%,–,–
C[C@]1(CO)C2CC[C@@H](O)[C@@H](CC(=O)N3CCCC3)[C@]2(C)CC[C@H]1OC(=O)Nc1cccc(F)c1 (some centres not stated),–,–,"inconclusive: 39.8 µM [inhibitor, partial curve, poor fit]"
COC1C(=O)N(C2CCN(C(=O)NCc3ccc(C)cc3)CC2)C12CCOCC2 (configuration not stated),–,inactive,–
COCc1nc2nc(-c3ccccc3)c(-c3cccnc3)cc2n1C,–,–,"inconclusive: 56.2 µM [inhibitor, partial curve, poor fit]"
Cc1ccc2oc([C@H]3CCN(Cc4cccc(Cl)c4)C3)nc2c1,–,–,"inconclusive: 112 µM [inhibitor, partial curve, poor fit]"
CS(=O)(=O)N1CCC(C2CCN(C(=O)CN3CCOCC3)C2)CC1 (configuration not stated),inactive: -0.526%,–,–
Cc1cccc(CC(=O)N2CCCN(c3cc(-c4ccc(Cl)cc4)[nH]n3)CC2)c1,–,–,active: 39.8 µM
O=C1NC(=NC2CCCC2)C2(CCN(Cc3ccc(F)cc3)C2)N1c1cc(F)cc(F)c1 (configuration not stated),–,–,"inconclusive: 70.8 µM [inhibitor, partial curve, poor fit]"
CCN1CC2(CCN(C(=O)C(C)(C)N)CC2)CC(c2ccccc2)C1=O (configuration not stated),inactive: -15.2%,–,–
CNC(=O)C1CCCN(Cc2cccc(-c3ccc(F)cc3F)c2)C1 (configuration not stated),–,–,"inconclusive: 79.4 µM [inhibitor, partial curve, poor fit]"
O=C(c1ccccc1F)N1CCC2(CC1)SCC(=O)N2c1ccc(Cl)cc1,–,–,"inconclusive: 44.7 µM [inhibitor, partial curve]"
O=C(CC1CCCCN(Cc2ccccc2)C1=O)NCc1ccc(F)cc1 (configuration not stated),–,–,"inconclusive: 31.6 µM [inhibitor, partial curve, poor fit]"
COc1ccc(-c2cc(-c3ccccc3)nc3c(C)noc23)cc1OC,–,–,"inconclusive: 20 µM [inhibitor, full curve]"
COc1ccc(-c2cc(CC3(NCc4cccc(OC)c4)COC3)no2)cc1,–,–,"inconclusive: 100 µM [inhibitor, partial curve]"
O=C(COc1ccccc1)NC[C@H]1Cn2c(-c3ccc(F)cc3)cnc2CO1,–,–,"inconclusive: 89.1 µM [inhibitor, partial curve]"
CS(=O)(=O)N1C[C@H]2CCN(C(=O)c3ccc(=O)[nH]c3)C[C@H]21,inactive: -12.6%,–,–
COC(=O)CNC(=O)c1cc(-c2cccc(C(F)(F)F)c2)c2cccn2n1,–,–,"inconclusive: 7.94 µM [inhibitor, full curve, poor fit]"
O=C(Nc1ccccc1F)N1CC2CCC(C1)N2Cc1ccc(Cl)cc1,–,–,"inconclusive: 44.7 µM [inhibitor, partial curve, poor fit]"
